# The campaign covered roughly 310,000 compounds. About 14,000 (4.5%) showed an effect of 50% or more. Effects have a minus sign here. Some of the results follow.
# Target: human ether-à-go-go-related gene (hERG) potassium channel (human, UniProt Q12809)
# Assay: primary screen, population patch clamp on CHO cells stably expressing hERG
# 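Further: peak tail current of the secondary pulse compared with the same well before compound.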
# human ether-à-go-go-related gene (hERG) potassium channel, sequence (Q12809 whole entry, looked up): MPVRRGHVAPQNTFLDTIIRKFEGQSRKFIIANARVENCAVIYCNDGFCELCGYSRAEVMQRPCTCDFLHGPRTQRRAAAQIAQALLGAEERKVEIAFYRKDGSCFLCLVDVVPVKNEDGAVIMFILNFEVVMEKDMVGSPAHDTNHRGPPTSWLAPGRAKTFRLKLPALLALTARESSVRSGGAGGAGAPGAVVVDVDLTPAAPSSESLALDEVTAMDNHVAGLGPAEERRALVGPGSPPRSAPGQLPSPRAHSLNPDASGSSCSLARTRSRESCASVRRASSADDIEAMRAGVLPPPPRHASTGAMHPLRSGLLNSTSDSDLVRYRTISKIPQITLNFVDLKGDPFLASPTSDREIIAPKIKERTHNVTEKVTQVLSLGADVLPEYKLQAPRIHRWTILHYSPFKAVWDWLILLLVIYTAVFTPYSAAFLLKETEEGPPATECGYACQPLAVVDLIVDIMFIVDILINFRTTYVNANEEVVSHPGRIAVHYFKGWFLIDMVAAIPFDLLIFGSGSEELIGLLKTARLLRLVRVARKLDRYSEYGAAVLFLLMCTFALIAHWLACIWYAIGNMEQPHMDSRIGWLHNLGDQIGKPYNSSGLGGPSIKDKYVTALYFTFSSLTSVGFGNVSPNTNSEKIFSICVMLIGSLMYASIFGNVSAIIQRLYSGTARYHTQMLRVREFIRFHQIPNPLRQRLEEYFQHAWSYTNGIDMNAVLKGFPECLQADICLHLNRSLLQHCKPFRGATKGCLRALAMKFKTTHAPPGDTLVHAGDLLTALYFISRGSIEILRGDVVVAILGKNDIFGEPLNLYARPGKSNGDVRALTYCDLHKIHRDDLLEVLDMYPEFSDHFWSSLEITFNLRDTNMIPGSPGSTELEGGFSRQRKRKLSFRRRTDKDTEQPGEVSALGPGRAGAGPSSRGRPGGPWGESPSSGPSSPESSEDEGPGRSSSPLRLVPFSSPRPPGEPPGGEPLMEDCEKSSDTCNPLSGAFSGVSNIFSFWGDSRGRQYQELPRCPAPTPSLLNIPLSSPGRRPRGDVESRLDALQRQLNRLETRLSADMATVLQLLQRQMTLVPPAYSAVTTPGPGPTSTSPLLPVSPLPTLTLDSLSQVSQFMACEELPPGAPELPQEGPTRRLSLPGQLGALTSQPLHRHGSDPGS
row,Compound,"hERG current change (%, negative = inhibition) at 10uM [%]"
1,CCN(CC)C(=O)C(=O)c1cn(CC(=O)NCC2CCCO2)c2ccccc12 (stereo not drawn),9.4
2,O=C(COC(=O)CSc1ccc(F)cc1)NCCCc1ccccc1,7.08
3,Cc1ccc(NC(=O)c2c(C)nn(-c3ccccc3)c2Cl)cc1,-10.8
4,O=C(c1ccc2snnc2c1)N1CCCC1,6.69
5,CCC(=NCCO)c1c(O)n(-c2ccccc2)c(=O)[nH]c1=O,15.5
6,COc1ccc(C2(C(=O)NCCc3ccccc3)CCCC2)cc1,1.53
7,CCC(=O)Nc1ccc(N2CCN(Cc3ccccc3F)CC2)cc1,-22.5
8,CC(C)=C1C2CC2C2C(C(=O)O)C12 (stereo not drawn),13.9
9,O=C1COc2ccc(C(=O)COC(=O)c3ccc4ccccc4n3)cc2N1,2.53
10,Cc1ccc(C)c(NC(=O)CN(C)C(=O)c2cc3c(s2)CCCCC3)c1,1.59
11,O=C(Nc1nc(=O)n(C(=O)c2cccc(C(F)(F)F)c2)s1)c1ccccc1,0.0736
12,COC(=O)CC1COc2ccccc2N1C(=O)c1ccc(Br)cc1 (stereo not drawn),-2.98
13,COc1ccc(C(=O)Nc2ccncc2)cc1S(=O)(=O)N1CCOCC1,4.42
14,OC(C#CCN1CCCC1)(c1ccccc1)c1ccccc1,-28.8
15,COc1ccc2oc(=Nc3ccc(C(=O)O)cc3)c(C(=O)NCc3ccco3)cc2c1,-36.4
16,O=C1S/C(=C\c2ccc(O)c([N+](=O)[O-])c2)C(=O)N1c1ccccc1Cl,7.26
17,Cc1ccc(S(=O)(=O)NC(=O)NCCCN2CCOCC2)cc1,20.1
18,CC1(C)OC(=O)C(=CNc2ccc(F)cc2)C(=O)O1,-12
19,CCCCCCc1c(O)nc(SCC(=O)O)[nH]c1=O,-10.9

row,Compound,"hERG current change (%, negative = inhibition) at 10uM [%]"
1,CCCOc1cccc(C(=O)Nc2ccc3c(c2)OCCO3)c1,0.786
2,COc1ccc(S(=O)(=O)N2CCc3ccccc32)cc1C(=O)OCc1nnc(-c2ccccc2)o1,0.72
3,Cc1c(NC(=O)c2cnn3c2NC(c2ccccc2)CC3C(F)(F)F)c(=O)n(-c2ccccc2)n1C (stereo not drawn),-16
4,CN(C(=O)c1ccc(NC(=O)Cc2ccc(NC(=O)C3CCN(C(=O)C4CC4)CC3)cc2)cc1)C1CC1,-7.85
5,O=C(Nc1ccc(Cl)cc1Cl)c1cc2ccccc2o1,6.28
6,C/C(=C\c1ccccc1)C1Nc2cccc3cccc(c23)N1,11.9
7,CCCn1c(=O)c(C(=O)NC(C)c2ccccc2)c(O)c2ccccc21 (stereo not drawn),16.7
8,O=[n+]1c2c(n([O-])c3cc(F)c(N4CCCC4)cc31)CCCC2,6.38
9,CSc1nnc(-c2ccc(S(=O)(=O)N3CCOCC3)cc2)n1C,-25
10,Clc1nc2c(ccc3ccccc32)[nH]1,-10.8
11,Cc1ccc(S(=O)(=O)N2CCCC2C(=O)Nc2ccc(O)cc2)cc1 (stereo not drawn),2.28
12,CC(C)(C)C(=O)COC(=O)CCc1nc2ccccc2[nH]c1=O,6.51
13,COc1cc(/C=C/C(=O)OCC(=O)Nc2c(C)n(C)n(-c3ccccc3)c2=O)ccc1OCC#N,14.9
14,COc1ccc(OCCC(=O)OCC(=O)NCCc2ccccc2)cc1,6.65
15,CCC(C)NS(=O)(=O)c1ccc(OC)c(Cl)c1Cl (stereo not drawn),1.98
16,Cc1ccc(CNC(=O)C2CCN(S(=O)(=O)N3CCCC3)CC2)cc1,0.472
17,COc1ccc(CNC(=O)CSc2nnc3c(n2)[nH]c2ccc(OC)cc23)cc1,12.8
18,CCN(CC)CCn1c2c(c(SCC(=O)Nc3ccc4c(c3)OCO4)nc1=O)CCC2,-39.2
19,Cc1nc(CC(=O)Nc2nc(C(C)(C)C)cs2)cs1,-14.3

row,Compound,"hERG current change (%, negative = inhibition) at 10uM [%]"
1,O=C(O)c1cccc(CN2C(=O)CSC2=O)c1,19.4
2,N#Cc1ccccc1OCC(=O)OCC(=O)NC1CCCCCC1,18.6
3,OCCCc1cn(Cc2ccccc2)c2ccccc12,-3.07
4,CCn1nc(C)c(/C=N\NC(=O)c2cccc(OC)c2)c1C,9.25
5,CCCCNC(=O)CSc1nnc(Cc2ccc(Cl)c(Cl)c2)c(=O)[nH]1,15.9
6,COc1cc(CN(CC2CCCO2)C(=O)c2cccs2)cc(OC)c1OC (stereo not drawn),10.9
7,Cl.Cn1c(=O)c2c(nc(N3CCCCC3)n2CCCNC2=NCCCC2)n(C)c1=O,9.43
8,O=c1c2ccccc2nc(N/N=C/c2ccccc2)n1O,-3.87
9,CC(C)CN(Cc1cc(=O)oc2cc3c(cc12)CCCC3)CC(C)C,11.9
10,Cc1ccc(C(C(=O)NCc2ccc(F)cc2)N(C(=O)c2csnn2)C2CC2)cc1 (stereo not drawn),-19.3
11,CCS(=O)(=O)N1Cc2ccccc2CC1C(=O)Nc1nccs1 (stereo not drawn),0.999
12,CCOc1ccc(NC(=O)CN(C)C(=O)CN2C(=O)NC3(CCCC3)C2=O)cc1OCC,6.88
13,Cc1ccccc1N1CC(C(=O)Nc2nnc(SCCC3OCCO3)s2)CC1=O (stereo not drawn),16.3
14,CC(=O)c1ccc(NS(=O)(=O)c2cc3c(cc2C)N(C)CCO3)cc1,13.5
15,CN(C)N=Nc1nc2c([nH]1)c(=O)n(C)c(=O)n2C,11.3
16,Cc1ccc(S(=O)(=O)NCC(=O)NCC(=O)OCC(=O)N2CC(=O)Nc3ccccc32)cc1C,-10
17,O=C(COC(=O)CNC(=O)c1ccc(Cl)c([N+](=O)[O-])c1)NCC1CCCO1 (stereo not drawn),1.74
18,Cc1coc(C)c1C(=O)CC1(O)C(=O)N(Cc2ccccc2)c2ccccc21 (stereo not drawn),-6.46
19,COc1ccccc1C(=O)NCc1ccc(-c2nc3ccccc3s2)cc1,-11

# Source: PMC4336329 (PLoS ONE, 2015)
